Test results from the supplement of paper PMC11417369.
± gives the standard deviation of the averaged measurements. The list shows a part of the results.

The sequences below were run on PfAP2-G AP2 domain (GST-tagged) (assay: gcPBM binding intensity (ln(normalized median fluorescence intensity)); higher = stronger DNA binding).
Method in brief: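 Probes on an Agilent 4 × 180k array were primer-extended, double-stranded and 36 bp long, taken from intergenic genomic regions, with negative controls added. GST-tagged P. falciparum DNA-binding domains from E. coli, about 25 μg on average, were applied to the array for 1 h in 1× PBS containing 1% milk, 0.2 mg/ml BSA, 0.5% salmon testes DNA and 0.03% Triton X-100. Binding intensity, obtained after Alexa488 anti-GST antibody detection and a 488 nm scan, is the highest Masliner-normalised natural-log median intensity across replicate spots of either probe orientation.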

| Sequence | gcPBM binding intensity (ln) |
| --- | --- |
| TAATAATCAAGTTAACGTACAAAATCATCTATAGAA [XGTACX_site5921] | 10.9 ± 0.53 |
| GTAGCCTTTCTTTATAAAGGCAAACAAACAAAAAAT [CACACA_negctrl_site1491] | 10.2 ± 0.34 |
| ATATGAGAGAATAAAACACACAAAAAAAAAAAAAAA [CACACA_site2865] | 9.69 ± 0.33 |
| AAAAAAAAAAGTTCTACACACACAAAAAAATATTTT [CACACA_site8725] | 10.02 ± 0.042 |
| AAAAATTAAAAGAAAATACACACCTGTGGGTGCTTA [CACACA_site1988] | 9.54 ± 0.26 |
| TTATATAGGCAGATGGTGCATCTATTTATAAGCAAC | 9.95 ± 0.28 |
| TGTATGTATTTTCAATGTACATAAAAAAAAAAAAAA [XGTACX_site4397] | 10.9 ± 0.92 |
| TATTTTTTTTGTTAGGTGCATTTACATTTATTTTTA | 10.1 ± 0.22 |
| TGTTTATATAATATTCTACACACCAACAACAAACAT [CACACA_site8087] | 10.5 ± 0.42 |
| TATAATATAATTAAAAGTACTTAAAAAAGAATGAAA [XGTACX_site1157] | 11.4 ± 0.79 |
| CCGTATTCAAAAAGGAGTACACAATTATATGTTATA [XGTACX_site641] | 11.7 ± 1 |
| TTTTTAAAACATATCACACATATATATATATATATA [CACACA_site5991] | 10.1 ± 0.5 |
| TATTTTTATAAAAATCGTACAAGTGATCCAATTTTT [XGTACX_site4402] | 11.3 ± 0.85 |
| TTTATATAATTTTGTGGTACTTATGTGTGTATATTA [XGTACX_site706] | 11.2 ± 0.73 |
| ATATAAATAATGTTGACACACACAATAATCTTATTA [CACACA_site9197] | 10.05 ± 0.085 |
| AAAATATGGATTCATGATATTAAATTTAATTTAATG [XGTACX_negctrl_site214] | 9.95 ± 0.085 |
| GTTATACTCATATATACACACATATGTAAATATATA [CACACA_site5764] | 10.2 ± 0.25 |
| ATTATATTAGGTAATCAGTTAAATGTTTCCTTTTTA [CACACA_negctrl_site1229] | 9.77 ± 0.085 |
| ATACGAAAAAAAAAAAGTACACAAAAATATCTACAT [XGTACX_site2051] | 11.7 ± 1.1 |
| TATTTTCAACATATTTGTACATATTTTATATTTTAA [XGTACX_site101] | 10.9 ± 0.46 |
| CGCGCACCCAGACACACACACACACCGATATATATA [CACACA_site8687] | 10.4 ± 0.35 |
| AAAAAAAAAAAAAGTACACACTTATAAAATATTATG [CACACA_site4639] | 11.6 ± 1.1 |

| Sequence | gcPBM binding intensity (ln) |
| --- | --- |
| TAAATTATCTTTTTATGTACTTATTTTTATTATTTT [XGTACX_site3158] | 11.4 ± 0.78 |
| AAAATAAATCTGAATGGGGTATAATATATCTTTGTT [CACACA_negctrl_site744] | 9.855 ± 0.049 |
| AAAAGGAACAGACACACACACATATATATATATATA [CACACA_site3587] | 10.4 ± 0.69 |
| TGCATACTAGCCAATTGTACATAATTTTATTTTAAA [XGTACX_site513] | 10.9 ± 0.59 |
| ATTATGATTTTATAGAACTGAACATTTACATTAAAT [GTGCAC_negctrl_site192] | 9.855 ± 0.064 |
| TGCTTTTATTTCTTCACACATATGTAAAAAAAAGAA [CACACA_site5906] | 10.3 ± 0.51 |
| AAAAAATTCTGGTACTGTACACATTTTTTTAAATTT [XGTACX_site6904] | 11.7 ± 1 |
| ATTTATTATATATACACACATACATATATATATATA [CACACA_site2159] | 10.04 ± 0.078 |
| ATAACAAAATAAAACACACACACAAATGTACTTATA [CACACA_site8768] | 11.4 ± 0.79 |
| AAATAAAAGGTTGAGAGTACATTTTTGTGTATGTAT [XGTACX_site5547] | 10.9 ± 0.47 |
| AAAAAAAAAATACAACAAAGTTAAATAAATAAATAA [GTGCAC_negctrl_site402] | 9.63 ± 0.042 |
| AGCTCTCAAAATTATTCACACGTGTCCTGTTATATA [CACACA_site5415] | 10.3 ± 0.071 |
| ATATTTCATTAATGAACACACAAAGAGGTATATAAA [CACACA_site1519] | 10.5 ± 0.49 |
| ATATTTAAAAATATAGTGCAATTATTCTAATGTGTT | 9.835 ± 0.078 |
| GTGCTTATTTATACATGTACAAATGATAAGTTTGTA [XGTACX_site169] | 10.9 ± 0.44 |
| GAAATAAATATATATGCATGTACTTTAATATTATTA [TGCATGCA_site904] | 11.2 ± 0.61 |
| TAAATATATTCATAAAGTACAAAGCAAAATTGTCTA [XGTACX_site7274] | 10.8 ± 0.43 |
| TTATTAAAATATTCTAGTACATATAAAAGGAGAACA [XGTACX_site4374] | 10.9 ± 0.67 |
| TTTTTTCTTTTATGTGAAATGTAATATTGTTATATA [GTGCAC_negctrl_site715] | 9.77 ± 0.17 |
| AGGTGATTGATATATACACACATACCTATATTTATA [CACACA_site7348] | 9.78 ± 0.15 |
| TGTTTATTTAATAATATTTTTTTTTTTATTATATTA [XGTACX_negctrl_site56] | 9.435 ± 0.078 |
| CACACAGGTAAAAAGGTGCAGTTGAAATATTCCTCA [GTGCAC_site9730] | 10.1 ± 0.12 |

| Sequence | gcPBM binding intensity (ln) |
| --- | --- |
| ATATATTATTTTAAATGTACTCATAATAGAAATGTC [XGTACX_site40] | 11.5 ± 1.2 |
| ATATAAAGAAAAGGAACACACAAATATATATATATA [CACACA_site463] | 9.86 ± 0.13 |
| ACATCGATTTATATTCTGCACTGAAGAAACTACAAC [GTGCAC_site9967] | 10.1 ± 0.16 |
| ATTAAATATATTAAATGTACATAATATATATATATA [XGTACX_site5032] | 11.3 ± 0.68 |
| TCAAACCAGTTGATGTGTACACATATAGTAATAATT [XGTACX_site6014] | 11.6 ± 0.89 |
| TTTATTTGATGAACATGTACAAAAAAACAAAGAACA [XGTACX_site823] | 11.1 ± 0.48 |
| TTATATTTTTACAAGAGTACATATATATATATATAT [XGTACX_site5383] | 11.4 ± 1.1 |
| GTGCAATATTTATTTTGTACATATTTATCAATAAAC [XGTACX_site8297] | 11 ± 0.82 |
| AAGAAAAAAAAAAAAAAAGATACTTTTTTAAAACTA [TGCATGCA_negctrl_site13] | 9.94 ± 0.17 |
| TGATATTTTATTATTAAAATATATACATATATATAT [CACACA_negctrl_site1456] | 9.96 ± 0.5 |
| ATAAAAATAAAATGGACACACATATATACCTATTTG [CACACA_site5761] | 10.8 ± 0.47 |
| AGAATAGAATAAAAAACACACATTTACAACATTATT [CACACA_site3894] | 9.72 ± 0.28 |
| TATTTACACAAAATAAAATATATTATATATATATAT [TGCATGCA_negctrl_site381] | 9.68 ± 0.085 |
| TTGCACAGATTAATCAAAAATTTTAAACCAAATATA [XGTACX_negctrl_site38] | 9.995 ± 0.035 |
| AAATAAATAATATTCACACATAAAAAAAATGGAGTT [CACACA_site4525] | 9.81 ± 0.099 |
| TATTTATACATAGGTGGTACTACTTTAAACAAAAAA [XGTACX_site5062] | 11.3 ± 0.91 |
| TATATGGAGAGATATGCACACTGTATGAATGCCCCC [CACACA_site8853] | 11.1 ± 0.67 |
| ATGTTGTTCATAAATATATTATTTTTAAATGTACAA [GTGCAC_negctrl_site507] | 10.8 ± 0.38 |
| CACGCACGCACATACACACACATACACATATAAATA [CACACA_site6907] | 10.6 ± 0.5 |
| AATTATATTGGTTGTAGTACTAAAAGTAAGTTAATG [XGTACX_site33] | 11.4 ± 0.84 |
| TATTCACTGATATGTTGTACATAAAAAAAATTAAAT [XGTACX_site6128] | 11.3 ± 0.85 |
| GTATTTAGATGATTAACACACATATGTGTATTAATA [CACACA_site6733] | 10.3 ± 0.16 |

| Sequence | gcPBM binding intensity (ln) |
| --- | --- |
| ATATATATTATTGAATGTACATAATTATTTAATAGT [XGTACX_site4971] | 11.1 ± 0.61 |
| ATATATTCACGTTAATGTACACATAATAAATTATAT [XGTACX_site5481] | 11.3 ± 0.88 |
| TTATATAAGATATTTCGTACACATTCAAAAATTATG [XGTACX_site7375] | 11.1 ± 0.67 |
| AATAAAATATAAGGGGGTACGGAGAAAGGATACTAT [XGTACX_site7733] | 11.2 ± 0.75 |
| TGAAAAAAGAAAAATACACACATATAATATAATATA [CACACA_site2255] | 9.74 ± 0.071 |
| TTTTTTATATTGATATTTATTAAATATGAAATGTTA [GTGCAC_negctrl_site405] | 9.78 ± 0.45 |
| CATACACCCCAACACACACACACACCCATATATAAT [CACACA_site8097] | 10.3 ± 0.36 |
| AAAAAAAAAAAAAAAAGTACATATATTATATATATA [XGTACX_site2983] | 11.3 ± 0.93 |
| TGTCTTTATATATATTTATTTTTTAGTATTACATAA [CACACA_negctrl_site21] | 9.86 |
| ATTTTCATATTTTTATGTACATATTATAAGAATATA [XGTACX_site3691] | 11.4 ± 0.71 |
| TATCTTTTTTTTAATACACACAAATTTATGAAAGTA [CACACA_site7879] | 10.2 ± 0.33 |
| ATAATTCTTTATTATAGTACACAAACTTTCAAAACA [XGTACX_site3597] | 11.3 ± 0.89 |
| CTATACATATTATATAGTACTTTATTATTATGACTA [XGTACX_site1382] | 10.8 ± 0.45 |
| TATATAAGAGGAAAAAGTACAGAAAAACAAAGAGAA [XGTACX_site2926] | 11.4 ± 0.8 |
| TGTATTTATAGCAATACACACATAACAATAAATATA [CACACA_site3328] | 10.04 ± 0.078 |
| TTTATTCCAGTATTCACACACGAATAACCACATAAC [CACACA_site5104] | 10.3 ± 0.28 |
| TTTATTTTAAAATTTACACACAAAAGGATTTATAGA [CACACA_site2338] | 10.1 ± 0.15 |
| TATATTAATTAACAGTGTACAAAAAAAAATAAAAAA [XGTACX_site3702] | 11.2 ± 0.8 |
| AAAATAAAAAGAAATTGTACGTATAATAATATATTT [XGTACX_site7593] | 11.4 ± 0.79 |
| AGGATACACGGACACACACACATATATATATATATA [CACACA_site4654] | 11.3 ± 0.86 |
| TATTAAAATAACATACGTACATAAGTATATAAAAAA [XGTACX_site1769] | 11.6 ± 0.93 |
| ACAAAACATATATTCTGTACATATATAATGGTGACT [XGTACX_site6796] | 10.9 ± 0.57 |
